# Experimental data from the supplement of paper PMC12632987.
# The full ranking holds about 4,500 sequences; the median of “median log2 fold change of GCK-ALFA target abundance (FLAG IP / Myc IP barcode read proportion)” is about 0.078, and the lowest 2% start at about -0.6. The list shows a part of the results.
# B1: GBRAP_128_3565 (protein)
# chain: STAELVAEARALLAAIKAADAEEARALAERLADLIAAASPEARAAIVETILARLPELTAEQLDILADVFAARRATADPAVAEALAEIQVEALNVREEKEE
# B2: GBRAP_160_4580 (protein)
# chain: SAKLEEALALIDEAAEFVKSLVDEVTLEEFINFLETEFGSVILELLDKGLITEEVADKLMEVVDEAVEYLKANPDLTPEERKELVDEMTAKMKAILKEAA
# B3: GBRAP_117_2578 (protein)
# chain: MEEREEVKRRLRETVREAGKRLEESKSLSPEERRKVEEEVRERIAEAVREALEVLSREEVLDIVEEELLEFDAETYFKIMSFVEEAIEEIREEEEREREE
# B4: GBRAP_137_3679 (protein)
# chain: MKVKITIEEHEDVVEITVTIEDKETGEELAEKIEDIAVEVGALAISVEKNEDGTYEVTIYVPKEKLEELLKKILELLKDADEVEIIRIVDGKETVEVIKN
# B5: GBRAP_125_3007 (protein)
# chain: DLEVVVELIRGLLELAGESESNIEEAERLAREQGGKNTLIAVLLAIGTEELADLARKLSPEQLVRVARRAVEYLKAHPDISLEEALEHLRRLIEEELAKA
# B6: GBRAP_11_2799 (protein)
# chain: KKEALEKMAKLAEELAKALEELIKEGVDNEELREKIEKLLKELKELAEKHADEGLRKLVEIAEELFKKIYEDPENAEEYAKLALATVRVLEGNILLEIEE
# B7: GBRAP_139_3711 (protein)
# chain: MKPEELIAEAKAIVKENKNDIEKLAKEIAELMSKADDETALLIARAAAEELKDFSWEEWEKLIELVSEELKKLGEEEDRVLAIEGEMEAVFAEQEIAKEK
# B8: GBRAP_95_7048 (protein)
# chain: DDDRLALESAVDVLETYLDLGEEEKARRAAREAVRLLREAGFDAVPADLSLEARRLLIREAARILSPEEVRALTDALLAVAPREEDKAALRAVAEAELAA
# B9: GBRAP_128_3424 (protein)
# chain: HMEEAVARARELLEKMLTADPEEAQKLADELVELFSSADLETAEAIAEVILEKLPEFTAEQLEILADALRKALPKLTPEKANVAAGVIVELLNRAEELEE
# B10: GBRAP_11_2786 (protein)
# chain: KKEKLKEIIKLAEEAIKLAKELKESGGNNQELIDKLKKLLEKLKELVKENMDEADKKLAEIAIEEFEKALADPANQQEHLDHAIAALEVLKGEALLRLEE
# B11: GBRAP_125_2995 (protein)
# chain: APEEVLAALARLLRALGFDDEDVAEAVALAARHGARGTLYAALKALGYDAAADAVARLTEAETAEVLLRVAAELEANPDLTPDEVAALILAVAEAVLAAS
# B12: GBRAP_9_7162 (protein)
# chain: MEELIEKMEKVVEEMFEEIKEVVPEEKQPVVDEERKEVLEKLKELKADPTVTKEEAAEKTIELVEEALEKIKKVVSPELAKQLEAIALTAILEIEEIKEE
# B13: GBRAP_52_5870 (protein)
# chain: MLEEAVKLLKEMVKAMKEGKKEEAKKIAKEIVEKFSDETILEAVKKLAEEVLTKSLEEAEAFFEAAELLSDIMLEAGRDENIASLIEAIAGAALYKVEQK
# B14: GBRAP_11_2836 (protein)
# chain: KKEKLKKIAEKAKEVAKELEKLIASGNPSQEELEKLLKKVEELLKLAKELGDESLVKLAEIALEEVKEAIEDKENQIEHLENALAAVRVLEGQALLLADE
# B15: GBRAP_11_2628 (protein)
# chain: KKEILKEMAELAKKLAELVKKLLEEGVDNEELLKEIEETLKKIEELTKKYGTEADKTDVEVAKELFEEAKKDKENKEFYLEQLLAAARVLEGNYLLEIEE
# B16: GBRAP_184_5088 (protein)
# chain: KTLERLVEAETREELLAKVDEVIAEAKEEKADLVVEVRMPGLDVETALEIIERLGKAKKEGAFKNVTVGFAEAFTEEEADKILEKADKEGIKVVLALNEE
# B17: GBRAP_11_2629 (protein)
# chain: KKEILKKKAELAKKLAEKVEKLLKEGVDNEELLKEIEKLLKEIAELTEKYGTEADKSLVEVAKELFEEAKKDKENKEKYLKELLAAAKVLEGDYLLEIEE
# B18: GBRAP_128_3543 (protein)
# chain: SLEEARKEAEEVMEKIKNSSPEEAKKITKEFLEKLKTWTDEEVEAAVEVLIERLPELSAEKLEVLADTIREERGKFTPKKQELLADLEVEALNEAEELEE
# B19: GBRAP_39_5649 (protein)
# chain: DEEEEMELLVSYNIALAEKYMVEKNISEEELIEEGMKLLEEIAKEHPEIKELVEELIKLAKEGNEEQKLAAVGIALRYKEGAPIEEIKEDIEKLIAYFKK
# B20: GBRAP_52_5948 (protein)
# chain: ALEEALALLREALAAVLAGREEEARAILRELVARYDLETIRAAGEALAAELANADDAEHEAFVRLVDLLEEELIEAGVPEEDALALRGDIEAALAKAVAA
# B21: GBRAP_160_4770 (protein)
# chain: KEKLKKLKEEVKEIFDEYIALLKESEKEEAVTLVEGAVGEVLMAVMSSEAASEELEEKIAEIMDETIAEAKANADKDVAYFIALLKEAKEKILKLIEEEI
# B22: GBRAP_11_2668 (protein)
# chain: KKEALKEALELAREAAELAEKLIEEGVENEELLKELEEKLKKLEELAEKELDEAYKRDVKIARELFEKALEDEENAEEYMKLLLAALRVLAGNLELDLDE
# B23: GBRAP_184_5022 (protein)
# chain: MLLERTIKVENVEEAKEKLEELKEELKRLKADAVVYLEIKNPTKEILEEIAEKVGEIMESGAAKRLTVGIAAALTEEQIDFLVEKLSAAGARLVVALSEE
# B24: GBRAP_160_4201 (protein)
# chain: SEKVEKVIRLLREETERVIAEVPELSREEVANLADVEYGSVLMEAVELGIENDEILDTIADAADEIRRFLEENRDASVEEIKRGIREITERAIEEIKKIA
# B25: GBRAP_11_2650 (protein)
# chain: KKEVLEKAAKLAEEAAKTADKLIAEGVDNKELIEELTKKVEELKELVKKNASEALKKDVEVAVELLEEFLKDPENAEKYAKELRAALRVLEGNFLLEIEE
# B26: GBRAP_160_4589 (protein)
# chain: SEALEKMKKIVEEELEEAKEMIKGESAEQRAVIVRGATGAIVMELSELPEASDELLDKVLEIGDETAETILANPNITDEELEALLDEAIEKMKKAIEESL
# B27: GBRAP_39_5679 (protein)
# chain: EKEEEDEDTVSYLEGVAAKYLYTTGISEEEAFKRAKEILKKYAEEHPELKELLEELIEIAEEKGEEAKLALIGVAVLIEEGTPLEEIKEIIERVINYFKS
# B28: GBRAP_160_4354 (protein)
# chain: SETVERLIEEIREVTEEVIEELDTISVEEARIIADGRFGEVFMEAAEDENMSDEMEDVILDGRDRVLEFLEENKDASVEELKKGIREITEETIKRLKEIA
# B29: GBRAP_184_5316 (protein)
# chain: EVIHKVIEVSTVEEAREKLREVREEVKKTGKKYLVTIEIKNPTKELIKTIAEEIKKMKEEGLPVEFIVEIPEDVSEELMDFAIEEFDKAGAKLVVAIPDE
# Biological target: GABARAP, O95166
# Sequence (O95166 whole entry, the tested form may be a part): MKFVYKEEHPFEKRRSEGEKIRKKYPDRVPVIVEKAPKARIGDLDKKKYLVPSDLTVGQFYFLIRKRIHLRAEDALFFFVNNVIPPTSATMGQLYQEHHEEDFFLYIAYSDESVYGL
# Test: median log2 fold change of GCK-ALFA target abundance (FLAG IP / Myc IP barcode read proportion) (log2 ratio); each designed protein is fused to an ALFA-tag nanobody in HEK293 cells to bring the named protein to FLAG-tagged glucokinase (GCK); Myc marks an untargeted standard; higher = target protein stabilised (more abundant)
# Conditions: target protein: 3xFLAG-MCP-GCK-ALFA reporter; HEK293 landing pad (RPLP)
# Summary of the method: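 An ALFA-nanobody-fused binder library was recombined into HEK293 landing-pad cells and induced with 2 μg mL^−1 doxycycline. Cells were transfected with a plasmid expressing a FLAG-tagged target and a Myc-tagged standard. After 48 h, lysates underwent anti-FLAG and anti-Myc immunoprecipitation, and circular RNA barcodes were reverse transcribed, amplified and sequenced. Target abundance is the per-binder median log2 ratio of FLAG to Myc barcode read proportions. Barcodes needed ≥10^−7 proportion in both replicates, binders ≥3 barcodes per replicate, and a 10^−6 pseudocount was added; the two replicates were pooled.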
row,Binder,median log2 fold change
1,B1,0.318
2,B2,-0.17
3,B3,0.274
4,B4,-0.124
5,B5,0.128
6,B6,-0.208
7,B7,-0.0366
8,B8,0.121
9,B9,0.158
10,B10,0.178
11,B11,-0.0191
12,B12,0.179
13,B13,0.0828
14,B14,0.179
15,B15,0.232
16,B16,0.163
17,B17,0.182
18,B18,0.18
19,B19,0.334
20,B20,-0.127
21,B21,0.0562
22,B22,0.101
23,B23,-0.0797
24,B24,-0.204
25,B25,0.247
26,B26,-0.067
27,B27,0.187
28,B28,0.0593
29,B29,0.181
